# Laboratory results published in PubChem BioAssay (Tox21).
# Several values for one entry are separate records, joined by “and”; a condition that tells them apart may be missing. Equal entries are not always repeated. Inconclusive results, whose numbers are uncertain, are shown with a selection of clear calls. Potencies beside an inconclusive call are fits to weak or partial responses and may not hold up. Activity calls are given as the source filed them. Unless noted, the call rests on the fitted dose curve; in most records, active means well fitted curve in the direction sought with a large enough effect in the repeat runs; inconclusive means weak or mixed curves; inactive means no such curve, though single readings can be large; an effect the other way counts as inactive or inconclusive.
# Assays:
# [1] = qHTS assay for small molecule agonists of the antioxidant response element (ARE) signaling pathway (AID 743202; active means well fitted activation curve with a large enough effect in the signal ratio in the repeat runs, not every such curve was filed as active; inconclusive means weak or mixed curves, or effect the other way; inactive means no such curve, though single readings can be large or run the other way; the % refers to the signal ratio; on activation: on the % scale 0 is the no-effect control and ±100 the full control effect); details: HepG2 ARE-bla reporter, beta-lactamase FRET, 16 h; activation: at 73.3 µM (top of the series) unless noted
# In short: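 Following a 16 h, 37 C exposure of reporter HepG2 cells (ARE-driven beta-lactamase, 2,000 cells/well) to compounds, FRET substrate was applied for 2 h at room temperature and fluorescence intensity recorded.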
# [2] = qHTS assay for small molecule activators of the heat shock response signaling pathway - cell viability counter screen (AID 743209); details: HSE-bla HeLa viability, CellTiter-Glo luminescence, 5 h; activity change, negative = cytotoxicity: at 62.6 µM (top of the series) unless noted; further: nearly all actives have a fitted effect of over 50% in size; on activity change, negative = cytotoxicity: on the % scale 0 is the no-effect control and ±100 the full control effect
# In short: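 Same-well multiplex: after 2.5 h room-temperature incubation with LiveBLAzer B/G substrate and fluorescence reading, CellTiter-Glo reagent was added to HSE-bla HeLa cells that had received compound for 5 h at 37 C; luminescence read after 30 min.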
# [3] = qHTS assay for small molecule activators of the heat shock response signaling pathway (AID 743210; active means well fitted activation curve with a large enough effect in the signal ratio in the repeat runs, with a control signal flat, not every such curve was filed as active; inconclusive means weak or mixed curves; the % refers to the signal ratio); details: HeLa HSE-bla reporter, beta-lactamase ratio, 5 h; activation: at 62.6 µM (top of the series) unless noted
# In short: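 Heat shock element–beta-lactamase HeLa reporter cells; qHTS with compounds for 5 h at 37 C; detection by FRET substrate fluorescence after 2.5 h at RT.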
# [4] = qHTS assay to identify small molecule agonists of the peroxisome proliferator-activated receptor delta (PPARd) signaling pathway - cell viability counter screen (AID 743211); details: PPARd-bla HEK293H viability, CellTiter-Glo luminescence, 17 h; activity change, negative = cytotoxicity: at 62.6 µM (top of the series); further: nearly all actives have a fitted effect of over 55% in size
# In short: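 In the same wells used for beta-lactamase reporter measurement, cytotoxicity is scored by CellTiter-Glo. HEK293H PPARd-bla cells receive compound for 17 h at 37C following a 5 h settling period.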
# [5] = biological target: Peroxisome proliferator-activated receptor delta (Homo sapiens) (UniProt Q03181); test: qHTS assay to identify small molecule agonists of the peroxisome proliferator-activated receptor delta (PPARd) signaling pathway (AID 743212; calls by dose curve;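 further: HEK293H cells with PPARd UAS beta-lactamase reporter GeneBLAzer system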; on activation: on the % scale 0 is the no-effect control and ±100 the full control effect); details: HEK293H PPARd-UAS-bla, beta-lactamase FRET ratio, 17 h; activation: at 62.6 µM (top of the series) unless noted
# In short: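 Beta-lactamase reporter read by fluorescence (LiveBLAzer B/G FRET, 2 h, room temperature). Test agents, in DMSO, incubated at 37 C with PPARd-bla HEK293H cells.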
# [6] = biological target: Bile acid receptor (Homo sapiens) (UniProt Q96RI1); test: qHTS assay to identify small molecule antagonists of the farnesoid-X-receptor (FXR) signaling pathway (AID 743217; active means well fitted inhibition curve with a large enough effect in the signal ratio in the repeat runs, not every such curve was filed as active; inconclusive means weak or mixed curves, or effect the other way; inactive means no such curve, though single readings can be large or run the other way; the % refers to the signal ratio; on activity change, negative = inhibition: on the % scale 0 is the no-effect control and ±100 the full control effect); details: HEK293T FXR-UAS-bla, beta-lactamase ratio, CDCA-stimulated, 16 h
# In short: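 FRET fluorescence after 2 h room-temperature LiveBLAzer loading gives the readout. Prior step: FXR-bla HEK 293T cells, seeded and incubated 5 h, received test compounds plus 50 uM final CDCA for 16 h at 37 °C.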
# [7] = biological target: Peroxisome proliferator-activated receptor delta (Homo sapiens) (UniProt Q03181); test: qHTS assay to identify small molecule antagonists of the peroxisome proliferator-activated receptor delta (PPARd) signaling pathway (AID 743215; active means well fitted inhibition curve with a large enough effect in the signal ratio in the repeat runs, not every such curve was filed as active; inconclusive means weak or mixed curves, or effect the other way; inactive means no such curve, though single readings can be large or run the other way; the % refers to the signal ratio;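 further: cells stimulated with agonist L165041 at 300 nM final during compound exposure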); details: HEK293H PPARd-UAS-bla, beta-lactamase FRET ratio, antagonist, 17 h; ratio activity, negative = inhibition: at 62 µM (top of the series) unless noted
# In short: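 Fluorescence from cleaved LiveBLAzer B/G FRET substrate (2 h, room temperature) reports PPARd-driven beta-lactamase in HEK293H UAS-bla cells. Cells had been treated 17 h at 37 C with compound plus 300 nM final L165041.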
# [8] = qHTS assay for small molecule agonists of the antioxidant response element (ARE) signaling pathway - cell viability counter screen (AID 743203; calls by dose curve; further: nearly all actives have a fitted effect of over 55% in size); details: ARE-bla HepG2 viability, CellTiter-Glo luminescence, 16 h; viability change, negative = cytotoxic: at 73.3 µM (top of the series)
# In short: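 Measured in the same wells as the beta-lactamase ARE reporter, this read-out is CellTiter-Glo luminescence from HepG2 ARE-bla cells given compounds for 16 hrs.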
# [9] = qHTS assay to identify small molecule antagonists of the peroxisome proliferator-activated receptor delta (PPARd) signaling pathway - cell viability counter screen (AID 743213); details: PPARd-bla HEK293H viability, CellTiter-Glo luminescence, 17 h; viability change, negative = cytotoxic: at 62 µM (top of the series) unless noted; further: nearly all actives have a fitted effect of over 50% in size
# In short: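 HEK293H cells with the PPARd UAS-bla reporter, co-treated 17 h at 37 C with compounds and L165041 (300 nM final), were lysed with CellTiter-Glo. Luminescence indicated viable cell content.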
# [10] = activity change, negative = inhibition: at 62.6 µM (top of the series) unless noted
# Potency means the concentration at half of the fitted maximal effect; tags describe the fitted curve by direction and shape or compound fluorescence and quenching.
# UniProt Q96RI1, sequence (Q96RI1 whole entry, looked up): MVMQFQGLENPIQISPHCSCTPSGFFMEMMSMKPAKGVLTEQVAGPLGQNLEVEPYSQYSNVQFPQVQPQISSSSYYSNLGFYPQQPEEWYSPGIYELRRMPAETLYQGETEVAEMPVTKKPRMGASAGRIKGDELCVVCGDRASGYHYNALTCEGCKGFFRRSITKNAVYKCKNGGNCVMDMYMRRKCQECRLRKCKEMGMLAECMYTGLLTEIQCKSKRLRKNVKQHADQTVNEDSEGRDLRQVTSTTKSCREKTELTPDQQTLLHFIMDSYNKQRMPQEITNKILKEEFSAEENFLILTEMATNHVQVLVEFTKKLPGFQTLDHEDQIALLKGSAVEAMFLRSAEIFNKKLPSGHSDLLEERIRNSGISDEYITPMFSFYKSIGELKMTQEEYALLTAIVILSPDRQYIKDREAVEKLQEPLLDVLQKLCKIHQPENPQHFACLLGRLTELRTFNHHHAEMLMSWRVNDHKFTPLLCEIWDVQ
# UniProt Q03181, sequence (Q03181 whole entry, looked up): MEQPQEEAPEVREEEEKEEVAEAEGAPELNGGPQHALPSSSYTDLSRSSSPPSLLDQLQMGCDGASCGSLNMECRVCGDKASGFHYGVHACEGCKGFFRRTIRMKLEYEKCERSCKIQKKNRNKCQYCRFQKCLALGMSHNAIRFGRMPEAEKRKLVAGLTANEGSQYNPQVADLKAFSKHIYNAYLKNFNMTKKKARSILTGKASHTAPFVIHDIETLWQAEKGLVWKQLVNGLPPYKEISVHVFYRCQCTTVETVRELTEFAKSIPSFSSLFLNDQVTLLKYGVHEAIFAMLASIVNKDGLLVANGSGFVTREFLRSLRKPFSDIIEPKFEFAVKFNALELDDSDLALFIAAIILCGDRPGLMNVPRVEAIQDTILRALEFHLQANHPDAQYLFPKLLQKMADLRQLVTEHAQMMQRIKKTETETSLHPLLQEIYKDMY
structure (smiles),measurement,setting,value
CCOC(=O)c1cn2nc(OP(=S)(OCC)OCC)cc2nc1C,activation,[1],inconclusive: 23.8%
same,Potency,[2],inactive
same,Potency,[3],"inconclusive: 15.5 µM [falling, partial curve, poor fit]"
COP(=O)(OC)OC(Br)C(Cl)(Cl)Br (stereo not drawn),Potency,[1],active: 19.4 µM and active: 9.69 µM
same,Potency,[2],"inconclusive: 21.9 µM [cytotoxic, single point]"
same,Potency,[3],"inconclusive: 61.7 µM [falling, single point]"
same,Potency,[4],"inconclusive: 61.7 µM [cytotoxic, single point] and inconclusive: 54.9 µM [cytotoxic]"
same,Potency,[5],inactive
C=CCC1=C(C)[C@@H](OC(=O)[C@@H]2[C@@H](C=C(C)C)C2(C)C)CC1=O,Potency,[1],"inconclusive: 43.3 µM [rising, partial curve, poor fit]"
same,Potency,[2],active: 49 µM
same,Potency,[3],inconclusive: 47.1 µM
same,"activity change, negative = inhibition",[6]; [10],inconclusive: -41.9%
CC1(C)C(/C=C(\Cl)C(F)(F)F)C1C(=O)OC(C#N)c1cccc(Oc2ccccc2)c1 (stereo not drawn),Potency,[1],inactive
same,Potency,[2],inactive
same,Potency,[3],"inconclusive: 49.8 µM [rising, partial curve, poor fit]"
same,Potency,[7],inactive
Oc1ccc(C2(c3ccc(O)cc3)c3ccccc3-c3ccccc32)cc1,Potency,[1],"inconclusive: 27.3 µM [falling, full curve]"
same,Potency,[8],active: 27.3 µM
same,Potency,[3],inconclusive: 40.4 µM
same,Potency,[5],"inconclusive: 61.6 µM [falling, single point]"
same,Potency,[9],active: 13.8 µM
same,Potency,[7],active: 11 µM
same,Potency,[6]; [10],"inconclusive: 9.77 µM [rising, full curve]"
CCCOCC(=Nc1ccc(Cl)cc1C(F)(F)F)n1ccnc1,Potency,[1],"inconclusive: 9.68 µM [falling, full curve]"
same,Potency,[2],active: 12.3 µM
same,Potency,[3],inconclusive: 33.3 µM
same,Potency,[5],"inconclusive: 34.6 µM [falling, partial curve]"
CN1CCC(O)(c2ccc(F)cc2)C(C(=O)c2ccc(F)cc2)C1 (stereo not drawn),Potency,[1],"inconclusive: 18.8 µM [rising, partial curve]"
same,Potency,[2],"inconclusive: 33.5 µM [cytotoxic, single point]"
same,Potency,[3],inconclusive: 33.5 µM [single point]
same,Potency,[7],inactive
O=S1(=O)OCC2C(CO1)C1(Cl)C(Cl)=C(Cl)C2(Cl)C1(Cl)Cl (stereo not drawn),Potency,[1],"inconclusive: 9.69 µM [rising, partial curve]"
same,Potency,[2],"inconclusive: 61.6 µM [cytotoxic, single point]"
same,Potency,[3],inconclusive: 58.2 µM
same,Potency,[4],"inconclusive: 43.6 µM [cytotoxic, partial curve]"
same,Potency,[9],"inconclusive: 61.6 µM [cytotoxic, single point]"
same,Potency,[6]; [10],inconclusive: 54.9 µM
N#CC(C#N)=NNc1cccc(Cl)c1,Potency,[1],"inconclusive: 12.2 µM [rising, partial curve, poor fit]"
same,Potency,[2],"inconclusive: 0.616 µM [cytotoxic, full curve]"
same,Potency,[3],inconclusive: 3.21 µM
same,Potency,[4],active: 8.71 µM
same,activation,[5],inconclusive: -5.39%
same,Potency,[9],active: 8.71 µM
Clc1ccc(C(Cl)(Cl)Cl)cn1,Potency,[1],inactive
same,Potency,[8],"inconclusive: 17.2 µM [cytotoxic, partial curve, poor fit]"
same,Potency,[6]; [10],inactive
COC12CC[C@@]3(C[C@@H]1C(C)(O)C(C)(C)C)[C@H]1Cc4ccc(O)c5c4[C@@]3(CCN1CC1CC1)[C@H]2O5 (stereo partly drawn),Potency,[1],"inconclusive: 60.7 µM [falling, partial curve]"
same,Potency,[2],inconclusive: 60.7 µM [cytotoxic]
same,Potency,[3],inconclusive: 56.2 µM
same,Potency,[4],active: 48.2 µM
same,Potency,[5],inconclusive: 68.1 µM [single point]
same,Potency,[7],inconclusive: 68.1 µM [single point]
same,Potency,[6]; [10],inconclusive: 54.1 µM [partial curve]
COP(=O)(OC)C(O)C(Cl)(Cl)Cl (stereo not drawn),"activity change, negative = inhibition",[6]; at 62.6 µM (top of the series),inconclusive: -15.9% and inconclusive: -8.17%
same,"activity change, negative = inhibition",[6]; at 81.1 µM (top of the series),inconclusive: -15.8%
CCC(C)(c1ccc(O)cc1)c1ccc(O)cc1,Potency,[1],"inconclusive: 6.85 µM [rising, full curve] and inconclusive: 17.2 µM [rising, full curve]"
same,Potency,[9],"inconclusive: 61.6 µM [cytotoxic, single point]"
same,Potency,[6]; [10],"inconclusive: 61.6 µM [rising, partial curve, poor fit]"
